The whole screen tested about 120,000 compounds, of which about 5,300 (4.4%) were called active. Inconclusive means that the source gave no clear call. Such entries were picked first, then a sample of the others. Calls come from the whole dose curve; as a rule, active = well fitted inhibition curve with a large enough effect; inconclusive = small, poorly fitted or top-dose-only effect; inactive = no such curve, though single readings can be large or run the other way. Potencies of inconclusive entries are doubtful fits and often do not repeat.
Assay: qHTS Primary assay for Inhibitors of Plasmodium falciparum Dd2 growth in vitro; note: nearly all actives have a fitted effect of over 65% in size;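 for activity, negative = inhibition: plate controls were DMSO vehicle for no effect and reference drug for full effect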
Conditions: P. falciparum Dd2 growth, SYBR Green, 72 h; activity, negative = inhibition: at 28.9 µM (top of the series) unless noted; series mostly up to 28.9 µM
Outline: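 Readout: SYBR Green fluorescence, 485 nm excitation, 535 nm emission, after ~16 h lysis at 37C. Before that, Dd2-infected red cells (2.5% hematocrit) grew 72 h with compound, 29 uM top final concentration.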
Potency is the fitted concentration of half-maximal effect; tags give direction and shape of the fitted curve.

| SMILES | Potency | activity, negative = inhibition |
| --- | --- | --- |
| COc1ccc(-c2cn(C[C@H]3C[C@@H]4CCN3C[C@@H]4C(=O)NC3CC3)nn2)cc1 | inconclusive: 5.62 µM [inhibitor, single point] |  |
| CCOc1ccc(NC(=O)c2c(NC(=O)Cc3ccccc3)sc3c2CCCC3)cc1 | inconclusive: 17.8 µM [inhibitor, single point] |  |
| CCn1ncc(N2CCC(NC(=O)CCC3CCCCC3)CC2)cc1=O | inactive |  |
| CN(C)C(=O)C1CN(C(=O)c2ccc(C#N)cc2)CC12CCOCC2 (configuration not stated) | inactive |  |
| COc1ccc(Cl)cc1NC(=O)Cn1c(=O)n(Cc2ccco2)c(=O)c2ccc(C(=O)NC3CCCC3)cc21 | inconclusive: 17.8 µM [inhibitor, single point] |  |
| CN1CCC(Oc2ccc(C(=O)N3CCOCC3)cn2)CC1 | inactive |  |
| C=C(C)CN(CC)C(=O)c1c(C)oc2c1CN(Cc1cccc(F)c1)CC2 | active: 8.91 µM |  |
| COc1ccc(CCNc2ncnc3c2CN(c2ccccc2C)C(=O)CN3C)cc1 | inactive |  |
| O=C1NCc2ccccc2CC12CCN(Cc1ccc(Br)cc1)C2 (configuration not stated) | inconclusive: 10 µM [inhibitor, single point] |  |
| CC(=O)N1CCC[C@H]1C(=O)N1CCc2nc(C)nc(NC3CC3)c2CC1 | inactive |  |
| COc1ccc(-c2nc3ccc(NS(=O)(=O)c4ccccc4)cc3o2)cc1 | inconclusive: 10 µM [inhibitor, single point] |  |
| CC(C)c1noc(-c2cccn3c(CNC(=O)c4cccc(Cl)c4)nnc23)n1 | inconclusive: 0.794 µM [inhibitor, full curve, poor fit] |  |
| Cc1ccc(NC(=O)N2CCC3(CC2)CC(Cc2nc(-c4ccccc4)no2)CCO3)cc1C (configuration not stated) | active: 8.91 µM |  |
| CCCS(=O)(=O)Nc1ccc(=O)n2c1[C@@H]1C[C@@H](CN(C(=O)Nc3ccc(OC)cc3)C1)C2 | inactive |  |
| CC(C)c1noc(-c2cn(C3CCN(C(=O)c4ccccc4)CC3)nn2)n1 | inconclusive: 15.8 µM [inhibitor, single point] |  |
| O=C1CS(=O)(=O)C2(C(=O)N(Cc3ccc(F)cc3)c3ccccc32)N1c1cccc(C(F)(F)F)c1 (configuration not stated) | inconclusive: 20 µM [inhibitor, single point] |  |
| Cc1ccc(NC(=O)CCCn2c3ccccc3c(=O)c3cc(C)ccc32)c(Br)c1 | inconclusive: 17.8 µM [inhibitor, single point] |  |
| CC1CCN(S(=O)(=O)c2ccc3c(c2)N(CC(=O)NCCc2ccc(Cl)cc2)C(=O)CO3)CC1 | inconclusive: 10 µM [inhibitor, partial curve, poor fit] |  |
| CCOC(=O)N1CCN(C(=O)c2ccc3c(c2)N(Cc2cc(C)ccc2C)C(=O)c2ccccc2S3=O)CC1 (configuration not stated) | inconclusive: 1.26 µM [inhibitor, partial curve, poor fit] |  |
| c1ccc([C@@H]2CN(Cc3ccncc3)C[C@H]2COc2ccncc2)nc1 | inconclusive: 20 µM [inhibitor, single point] |  |
| CCNC(=O)NC[C@@H]1C=C(C)[C@H](CC(=O)NCc2ccc(F)cc2)C[C@H]1C(C)C | inconclusive: 14.1 µM [inhibitor, single point] |  |
| O=C(Nc1cccc(F)c1)N1Cc2[nH]cnc2C[C@H]1c1nc(-c2ccc3c(c2)OCO3)no1 | inconclusive: 10 µM [inhibitor, single point] |  |
| Cc1ccc(Cn2cnc3c(oc4ccccc43)c2=O)cc1 | inconclusive: 7.94 µM [inhibitor, partial curve, poor fit] |  |

| SMILES | Potency | activity, negative = inhibition |
| --- | --- | --- |
| c1coc(CN[C@H]2CO[C@H]3[C@@H]2OC[C@@H]3n2nnnc2Oc2ccc(-n3ccnc3)cc2)c1 | inactive |  |
| O=S(=O)(c1ccccc1)c1nnn2c1nc(Nc1ccccc1)c1cc(Cl)ccc12 | inconclusive: 3.55 µM [inhibitor, single point] |  |
| CCOc1ccc(N(C)C(=O)C2CCN(S(=O)(=O)c3ccc4c(c3)CCCN4C(C)=O)CC2)cc1 |  | inconclusive: -63.6% [inhibitor] [at 5.79 µM] |
| CCC(=O)N1CCc2sc(C(=O)NCc3cccnc3)cc2C1 | inactive |  |
| COc1ccc(-c2cc(N3CCCN(C(=O)c4cc5ccccc5[nH]4)CC3)n[nH]2)cc1 | inconclusive: 3.98 µM [inhibitor, partial curve, poor fit] |  |
| NC(=O)c1cccc(-c2cc3c(cn2)CN(Cc2ccccc2)CCN3)c1 | inconclusive: 10 µM [inhibitor, partial curve, poor fit] |  |
| COCC1CN(C(C)=O)CC12CCN(Cc1ccc(Cl)cc1F)CC2 (configuration not stated) | inconclusive: 12.6 µM [inhibitor, partial curve] |  |
| C#CCN(C)C(=O)[C@@H](C)C1CC[C@@]2(C)Cc3sc(NC)nc3[C@@H](C)[C@@H]2[C@H]1O (some centres not stated) | inactive |  |
| CC1CCC(Nc2nc3c(-c4cccc(C(F)(F)F)c4)nnn3c3ccccc23)CC1 (configuration not stated) | inconclusive: 11.2 µM [inhibitor, single point] |  |
| CCOC(=O)c1sc(NC(=O)C[C@H]2NC(=O)c3ccccc3NC2=O)nc1C | inconclusive: 20 µM [inhibitor, single point] |  |
| CC(C)OC(=O)c1c(NC(=O)C2c3ccccc3Oc3ccccc32)sc2c1CCCC2 | inconclusive: 1.26 µM [inhibitor, full curve, poor fit] |  |
| COc1cccc(-c2noc(CC3CCN(C(=O)c4cccc(F)c4)CC3)n2)c1 | inconclusive: 11.2 µM [inhibitor, single point] |  |
| N#Cc1cccc(CN2CCc3nc(C(=O)NCc4ccncc4)oc3CC2)c1 | inconclusive: 15.8 µM [inhibitor, single point] |  |
| CN(Cc1cccc(C(F)(F)F)c1)C(=O)c1ccc(Cl)nc1 | inconclusive: 31.6 µM [inhibitor, single point] |  |
| O=C1[C@@H]2C[C@@H](CN2C(=O)Cc2ccccc2)Oc2ccccc2N1CC1CC1 | inactive |  |
| O=C1NC2(CCNCC2)C(=O)N1Cc1cccc(Cl)c1Cl | inactive |  |
| CCN(CC)Cc1nc(C2(O)CCN(Cc3ccc(OC)cc3)CC2)cs1 | inconclusive: 1.58 µM [inhibitor, single point] |  |
| Cc1ccc(Cn2cc(S(=O)(=O)c3cccc(Cl)c3)c(=O)c3cc(F)c(N4CCOCC4)cc32)cc1 | inactive |  |
| CCc1noc(-c2ccn3c(CNC(=O)c4ccc(C)c(C)c4)nnc3c2)n1 | inconclusive: 20 µM [inhibitor, single point] |  |
| CCOc1ccc(C2NC(=O)c3c(COC)cc(C)nc3N2Cc2ccccc2)cc1OC (configuration not stated) | inconclusive: 14.1 µM [inhibitor, single point] |  |
| CCNC(=O)CC1=C2CCCCC2N(C)C1=O (configuration not stated) | inactive |  |
| CCOCc1nc(C2CCCN(C(=O)c3ccc(C)c(F)c3)C2)no1 (configuration not stated) | inactive |  |
| O=C(Nc1ccccc1)N1CC(c2nc(CCOCC3CC3)no2)C1 | inactive |  |

| SMILES | Potency | activity, negative = inhibition |
| --- | --- | --- |
| Cc1noc([C@@H](C)NC(=O)c2ccc(Cl)cc2)c1C(=O)O | inactive |  |
| COc1cc(-c2ncccc2C(=O)N2CCCC2)cc(OC)c1OC | inactive |  |
| NC(=O)CNC(=O)c1cc2n(n1)CC(c1ccc(Br)cc1)OC2 (configuration not stated) | inactive |  |
| Cc1noc(C2CCCCCN2C(=O)c2ccoc2)n1 (configuration not stated) | inactive |  |
| COCCO[C@H]1C(=O)N(C2CCN(C(=O)c3cnn(C)c3)CC2)[C@H]1c1ccncc1 | inactive |  |
| O=C(O)c1cccc(C2CCCN(C(=O)c3ccccc3-c3ncn[nH]3)C2)c1 (configuration not stated) | inactive |  |
| Cc1nc(CN2C(=O)OC3(CCN(C(=O)Cc4ccccn4)CC3)C2(C)c2ccccc2)cs1 (configuration not stated) | inconclusive: 8.91 µM [inhibitor, single point] |  |
| COCc1ccc2c(c1)c(OC(C)(C)C(=O)NCCN(C)C)nn2Cc1ccccc1 | inconclusive: 0.891 µM [inhibitor, partial curve, poor fit] |  |
| CC(=O)c1ccc(NC(=O)CCCSc2nc(-c3ccco3)cc(C(F)(F)F)n2)cc1 | inconclusive: 12.6 µM [inhibitor, single point] |  |
| Fc1cccc(-c2cnc([C@@H]3COCCN3C3CCCCC3)[nH]2)c1 | inconclusive: 31.6 µM [inhibitor, single point] |  |
| CCCn1c(C)cnc1CCNC(=O)c1nn(C)c2ccccc12 | inactive |  |
| CCOc1ccccc1CN1CCC2(CC1)CC1C(=O)N(CC)C(=O)N1C2 (configuration not stated) | inconclusive: 15.8 µM [inhibitor, single point] |  |
| COc1cc2c(cc1OC)C(COc1ccc3c(C)cc(=O)oc3c1)N(C(=O)c1cc(Cl)ccc1OC)CC2 (configuration not stated) | inconclusive: 1.26 µM [inhibitor, partial curve, poor fit] |  |
| Cc1ccc(N2CC(c3noc(-c4ccncc4)n3)CC2=O)cc1 (configuration not stated) | inactive |  |
| Cc1ccc(CN2CCSc3ccc(C(=O)NCC(C)c4ccccc4)cc32)cc1 (configuration not stated) | inconclusive: 20 µM [inhibitor, single point] |  |
| COc1ccc(-c2nc3c(c(-c4ccccc4)n2)CN(C(=O)Nc2ccccc2)CC3)cc1 | inactive |  |
| O=C1CCN(Cc2ccncc2)CCCC(C(=O)NCCCc2ccccc2)CCN1 (configuration not stated) | inactive |  |
| CSc1nccc(N2CCC3(CCCN(CC4CC4)C3)C2)n1 (configuration not stated) | inconclusive: 8.91 µM [inhibitor, partial curve, poor fit] |  |
| CCS[C@H]1CCN2C(=O)c3cc(-c4ccccc4)ccc3NC(=O)[C@H]12 | active: 11.2 µM |  |
| COc1ccc2c(c1)c(CN1CCCCCCN(C)C(=O)[C@@H]3CCC[C@@H]31)cn2C | inconclusive: 1.12 µM [inhibitor, full curve, poor fit] |  |
| COc1ccc(C(=O)N2CCCC3(C2)NC(=O)N(Cc2cccc(Cl)c2)C3=O)cc1F (configuration not stated) | inconclusive: 0.891 µM [inhibitor, full curve, poor fit] |  |

— PubChem BioAssay AID1347417 (National Center for Advancing Translational Sciences (NCATS), 2020)
